Test results: publication PMC7180069 (PLoS ONE, 2020)

Target: the molecule itself
Assay: non-reducing SDS-PAGE; recombinant CCL20 on SDS-PAGE under non-reducing conditions

B1: CCL20 (natural protein)
chain: not shown
notes: recombinant CCL20; also called LARC; source: recombinant
  stoichiometry N: 2
